# Test results from PubChem BioAssay AID1454 (National Center for Advancing Translational Sciences (NCATS), 2008).
# Hit rate of the full screen: of about 130,000 compounds, about 550 (0.42%) were called active. The shares of active, inactive and inconclusive entries below differ from those in the screen. The call rests on the fitted dose curve; in most records, active means well fitted inhibition curve with a large enough effect; inconclusive means small, poorly fitted or top-dose-only effect, or effect the other way; inactive means flat fitted curve, though single readings scatter. Potencies of inconclusive entries are left out as doubtful fits.
# Experiment: qHTS Assay for Inhibitors of the ERK Signaling Pathway using a Homogeneous Screening Assay; Stimulation with EGF; further: nearly all actives have a fitted effect of over 55% in size
# Details: HEK293-V1b, EGF-stimulated phospho-ERK AlphaScreen
# Method in brief: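 Stably V1b-transfected HEK293 cells; 30 min compound, then EGF 25 nM final for 5 min at 37C; 10 min lysis; phospho-ERK by AlphaScreen after 5 hr beads at room temperature.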
# Potency means the concentration at half of the fitted maximal effect; tags describe the fitted curve by direction and shape.
row,SMILES,Potency
1,Cc1cc(C(=O)N2CCc3c([nH]c4ccccc34)C2c2cccc(Cl)c2)nn1C (configuration not stated),"inconclusive [activator, partial curve, poor fit]"
2,Cc1nn2c(N3CCN(C)CC3)cc(C(C)(C)C)nc2c1-c1ccccc1,"inconclusive [inhibitor, single point]"
3,COc1cccc(OCCNc2cc(N3CCOCC3)ccc2[N+](=O)[O-])c1,"inconclusive [inhibitor, partial curve]"
4,O=C(C1CC1)N1N=C2CCCCC2C1(O)C(F)(F)F (configuration not stated),"inconclusive [inhibitor, single point]"
5,O=C(Nc1cc(SCCO)cc([N+](=O)[O-])c1)c1ccc(Br)o1,inactive
6,O=C(c1ccccc1Br)N1CCC(c2nc3ccccc3s2)CC1,"inconclusive [inhibitor, full curve]"
7,CN(C)c1ccc(CN(C(=O)c2ccc(Cl)c([N+](=O)[O-])c2)C2CCS(=O)(=O)C2)cc1 (configuration not stated),"inconclusive [inhibitor, single point]"
8,Cc1noc(C)c1C(=O)N1CCC2(CC1)CN(c1ccccc1)C2,inactive
9,Cc1cccc(NC(=S)NCc2ccc(F)cc2)c1,inactive
10,CN(C)c1ccc(NC(=O)c2ccc(Cn3cc([N+](=O)[O-])cn3)cc2)cc1,"inconclusive [inhibitor, single point]"
11,CN(C)c1ccc(NC(=O)COC(=O)c2cc(Cl)ccc2[N+](=O)[O-])cc1,"inconclusive [inhibitor, partial curve]"
12,Cc1cccc(C)c1NC(=O)CNCC(=O)N(C)C,inactive
13,NC(=S)n1[nH]c(-c2ccc([N+](=O)[O-])cc2)c(N=Nc2cccc(Cl)c2)c1=O,"inconclusive [inhibitor, single point]"
14,Cc1ccnc(NS(=O)(=O)c2ccc(NS(C)(=O)=O)cc2)n1,"inconclusive [inhibitor, full curve, poor fit]"
15,COc1ccc(NC(=O)N2CCC3(CC2)CCN(C(=O)c2ccco2)CC3)cc1,inactive
16,CC1=C(C)C(=O)C(CCCCC#CCCCC#CCO)=C(C)C1=O,"inconclusive [inhibitor, single point]"
17,CCCCCc1ccc(OCCC[n+]2ccccc2)c(CCCCC)c1,"inconclusive [inhibitor, single point]"
18,O=C(Oc1ccccc1)N1CCC2(CC1)CCN(c1ccncc1)CC2,"inconclusive [inhibitor, single point]"
19,Cc1ccc2[nH]cc(C(=O)NCc3cccs3)c(=O)c2c1,"inconclusive [inhibitor, single point]"
20,O=C(Nc1nc2ccc(F)cc2s1)C1CCN(S(=O)(=O)c2cc([N+](=O)[O-])ccc2Cl)CC1,"inconclusive [inhibitor, partial curve]"
21,CN(N=Nc1ccc([N+](=O)[O-])cc1)c1ccccc1,"inconclusive [inhibitor, partial curve]"
22,Cc1ccc2oc(=O)c3c4cc(O)c(O)c(C)c4oc3c2c1,inactive
23,O=C(NC1=C(Nc2ccc(Cl)cc2)C(=O)c2ccccc2C1=O)c1ccccc1,"inconclusive [inhibitor, partial curve, poor fit]"

row,SMILES,Potency
1,O=C(Nc1nc(-c2ccc(F)cc2)cs1)c1cnccn1,inactive
2,COc1ccc(OC)c(/C=C2\SC(=S)N(Cc3cccnc3)C2=O)c1,"inconclusive [inhibitor, single point]"
3,N#CCc1ccc(NC(=O)/C=C/c2ccc([N+](=O)[O-])o2)cc1,inactive
4,Cc1ccc(C(=O)n2c(N)nc3ccccc32)cc1,inactive
5,COc1ccc(N2C(=O)CN(Cc3cc(OC)c(OC)c(OC)c3)C2=S)cc1,inactive
6,C/C(=N\Nc1cc(C)nc(NCc2ccccc2)n1)c1cccc([N+](=O)[O-])c1,inactive
7,C/C=C1\C(=O)CC2C3CCC4=CC(=O)CC[C@]4(C)C3CC[C@]12C (some centres not stated),inactive
8,Cc1ncc(CCl)c2c1OC(C)(C)OC2,"inconclusive [activator, full curve, poor fit]"
9,COc1cc(/C=C2\SC(=O)N(c3ccc(O)cc3)C2=O)cc(OC)c1OC,"inconclusive [inhibitor, partial curve]"
10,Cc1cccc(CNc2nc(-c3ccccc3CN(C)C)nc3ccccc23)c1,inactive
11,CC(=O)Nc1ccc2c(c1)C(=O)N(c1cccc(C)c1)C2=O,"inconclusive [inhibitor, single point]"
12,CCOC(=O)c1c(C)[nH]c(C(=O)N/N=C\c2ccccc2Cl)c1C,"inconclusive [inhibitor, single point]"
13,CCOC(=O)c1nnn2c1nc(SCC(C)=O)c1ccccc12,"inconclusive [inhibitor, full curve, poor fit]"
14,Cc1ccc2nc(C(Cl)(Cl)Cl)nc(N/N=C/c3ccncc3)c2c1,"inconclusive [inhibitor, single point]"
15,COc1cc(OC)c(OC)cc1/C=N/NC(=O)c1ccc(=O)n(C)c1,inactive
16,Cc1cccc(N=C2NC(=O)/C(=C/c3cccn3C)S2)c1C,"inconclusive [inhibitor, single point]"
17,CCCCCC(=O)Nc1cccc(C2=NOC3(C2)C[C@H](C(N)=O)N(C(=O)COc2ccc(Cl)cc2)C3)c1 (some centres not stated),"inconclusive [inhibitor, full curve, poor fit]"
18,CC(=O)N[C@@H](CC(=O)O)C(=O)N[C@@H](CCC(=O)O)C(=O)O,inactive
19,O=C(Nc1ccc(Cl)c(S(=O)(=O)N2CCOCC2)c1)c1ccc2c(c1)OCCO2,"inconclusive [inhibitor, single point]"
20,COc1ccc(/C=C(/NC(=O)/C=C/c2ccccc2)C(=O)NCCCCCC(=O)O)cc1,inactive
21,O=C(COC(=O)c1ccc(O)cc1)Nc1ccccc1[N+](=O)[O-],"inconclusive [inhibitor, full curve, poor fit]"
22,CC(/C=C/c1ccccc1)=N\Nc1ccccc1[N+](=O)[O-],active: 7.94 µM
23,CCOC(=O)c1ccc(NC(=O)COc2ccccc2CNCCc2ccccc2)cc1,"inconclusive [inhibitor, single point]"

row,SMILES,Potency
1,Cc1ccc(S(=O)(=O)CCN2C=CC(C(F)(F)F)=NCC2)cc1,"inconclusive [activator, full curve]"
2,CCc1c(C)nc2ncnn2c1NCCc1ccc(Cl)cc1,inactive
3,COc1ccc(Oc2ncc3nc(-c4ccc(F)cc4)c(=O)n(C)c3n2)cc1,"inconclusive [inhibitor, single point]"
4,C=CCNc1nc2c(c(=O)n(C)c(=O)n2C)n1CC(=C)C,"inconclusive [inhibitor, single point]"
5,Fc1ccc(NC(=S)Nc2ccccc2N2CCOCC2)cc1Cl,"inconclusive [inhibitor, partial curve]"
6,O=[N+]([O-])c1cc(C(F)(F)F)cc([N+](=O)[O-])c1NCCCNc1ccc([N+](=O)[O-])c2cccnc12,"inconclusive [inhibitor, partial curve]"
7,CN1C(=O)/C(=C\C(=O)c2cccs2)c2ccccc21,"inconclusive [inhibitor, partial curve]"
8,Cc1cc(C)nc(/N=C(\N)Nc2cccc([N+](=O)[O-])c2)n1,"inconclusive [activator, full curve]"
9,COC(=O)CN(c1ccccc1)S(=O)(=O)c1cc(Br)ccc1OC,"inconclusive [inhibitor, single point]"
10,NC(=NCc1ccc(Cl)c(Cl)c1)NC(=O)c1nc(Cl)c(N)nc1N,"inconclusive [inhibitor, single point]"
11,Cc1ccc(C(=O)N/C(=C\c2ccc(-c3ccc(Br)cc3)o2)C(=O)NCCCN(C)C)cc1,"inconclusive [inhibitor, partial curve]"
12,COc1ccc(NC(=O)N2CCCC3(CCN(C(=O)c4csnn4)CC3)C2)cc1,inactive
13,COC(=O)c1ccc(-c2ccc(/C=N/N3C(=O)C4C5C=CC(C6CC56)C4C3=O)o2)cc1 (configuration not stated),"inconclusive [inhibitor, single point]"
14,C/C(=N\Nc1ccc(S(=O)(=O)Nc2ccccc2)cc1[N+](=O)[O-])c1ccc(N2CCOCC2)cc1,"inconclusive [inhibitor, full curve, poor fit]"
15,CC(/C=C1\SC(=S)N(NC(=O)c2cccc(O)c2)C1=O)=C\c1ccccc1,"inconclusive [inhibitor, single point]"
16,COCC1CCCN(Cc2cn(Cc3ccccc3)nc2-c2cc3ccccc3o2)C1 (configuration not stated),"inconclusive [inhibitor, single point]"
17,CCN(CC)CCC[C@H](C)Nc1ccnc2cc(Cl)ccc12,inactive
18,Cc1cc(/C=C(\C#N)C(=O)Nc2ccccc2)c(C)n1-c1ccc(C(=O)O)cc1,"inconclusive [inhibitor, single point]"
19,CN(C)c1ncc2nc(-c3ccc(Cl)cc3)c(=O)n(C3CC3)c2n1,"inconclusive [activator, partial curve]"
20,C=CCOC(=O)N[C@@H](c1ccc(Br)cc1)C(C(C)=O)C(C)=O,inactive
21,COc1cccc(C(=O)N(c2ccccc2)C2C=CS(=O)(=O)C2)c1 (configuration not stated),"inconclusive [inhibitor, single point]"
